The whole screen tested about 43,000 compounds, of which about 200 (0.47%) were called active. About 12% were inconclusive and are not listed. The call rests on the fitted dose curve; in most records, active means well fitted cell-killing curve with a large enough effect; inconclusive means small, poorly fitted or top-dose-only effect, or effect the other way; inactive means flat fitted curve, though single readings scatter. Some of the results follow.
Experiment: Cell viability qHTS assay in S16 Pmp22-F2sN cells; further: nearly all actives have a fitted effect of over 65% in size
Conditions: S16 Pmp22-F2sN Schwann cells (luciferase reporters placed in the Pmp22 gene) viability, CellTiter-Glo, 24 h; series mostly up to 57.5 µM; activity change, negative = cytotoxicity: at the top concentration
Procedure, shortened: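 Rat S16 Schwann reporter line, 24 h treatment with library compounds delivered at 23 nL per well. Cell viability by CellTiter-Glo luminescence.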
On the % scale 0 is the no-effect control and ±100 the full control effect.

SMILES	activity change, negative = cytotoxicity
Cc1nn(CC(=O)N2CCN(c3cccc(C(F)(F)F)c3)CC2)c(=O)c2cccn12	inactive: -4.7%
Cc1nn(C)c2c1c(C(F)(F)F)cc(=O)n2C(C)C(=O)NCc1ccccc1Cl (stereo not given)	inactive: 16.5%
Cc1ccccc1NC(=O)CSc1nnc(-c2cccs2)o1	inactive: 13.3%
COc1ccc(CCNC(=O)c2ccc3c(c2)N(Cc2ccccc2C)C(=O)c2ccccc2S3)cc1OC	inactive: 2.73%
COc1ccccc1NC(=O)CSC1=Nc2ccccc2C2=NC(CC(=O)NCc3cccs3)C(=O)N12 (stereo not given)	inactive: 4.25%
Cc1oc(-c2cccc(Cl)c2)nc1Cn1c(SCc2ccccc2F)nc2ccncc21	inactive: 11.3%
Cc1cc(C)cc(NC(=O)Cn2c(C(F)(F)F)nc3ccccc32)c1	inactive: 10.7%
O=C(CSc1ccc2nc(-c3ccccc3)cn2n1)Nc1cccc(F)c1	inactive: 6.89%
COc1ccc(NC(=O)c2c(NC(=O)Cc3ccccc3)sc3c2CCCC3)cc1	inactive: -5.17%
Cc1ccc(NC(=O)C2CCCN2S(=O)(=O)c2ccc3c(c2)CCCC(=O)N3)cc1Cl (stereo not given)	inactive: -4.22%
Cc1cccc(NC(=O)CSc2nc3ccc(NC(=O)COc4ccccc4F)cc3s2)c1	inactive: 23.5%
Cc1cc(F)ccc1NC(=O)Cn1c(=O)ccc2cc(S(=O)(=O)N3CCC(C)CC3)ccc21	inactive: -5.35%
CCN(CC)CCCNC(=O)CN1N=C(c2ccccc2)CCC1=O	inactive: 4.63%
COc1ccc(NC(=O)Cn2c(=O)n(Cc3ccc(C(=O)NCc4ccccc4Cl)cc3)c(=O)c3ccccc32)cc1	inactive: 15.3%
COc1ccc(Cn2nnc3c(=O)[nH]c(C4CCN(C(=O)c5ccc(C)cc5)CC4)nc32)cc1OC	inactive: -25.2%
O=C1c2[nH]nc(-c3ccccc3O)c2C(c2ccc(F)cc2)N1CCO (stereo not given)	inactive: 0.0834%
COc1ccc(OC)c(NC(=O)Cc2c(C(=O)O)n(C)c3ccc(C)cc23)c1	inactive: 0.25%
COc1ccc(NC(=O)CSc2nccn2Cc2ccco2)c(OC)c1	inactive: 0.387%
CCc1cccc(C)c1Nc1c(-c2cccc(O)c2)nc2nc(C)cc(C)n12	inactive: -10%
CCc1ccccc1NC(=O)CSc1ncc(S(=O)(=O)c2ccc(C(C)C)cc2)c(N)n1	inactive: -2.15%
Cc1ccc(CN(Cc2ccco2)C(=O)c2ccc(Cl)cc2)o1	inactive: -2.51%
CCc1ccc(-n2c(=O)c3c(C)c(C(=O)N(C)C)sc3n(Cc3ccccc3C#N)c2=O)cc1	inactive: -6.54%
CCOC(=O)c1c(C)sc(-c2c(-c3ccc(OC)c(F)c3)[nH]c3[nH]c(=O)[nH]c(=O)c23)c1O	inactive: -2.3%
CC1=C(C(=O)Nc2ccc(Cl)cc2)C(c2ccc(C(F)(F)F)cc2)n2nnnc2N1 (stereo not given)	inactive: -6.5%

SMILES	activity change, negative = cytotoxicity
COc1ccc(-c2nc(SCC(=O)N3CCCCC3C)n[nH]2)cc1 (stereo not given)	inactive: 0.441%
CCOC(=O)c1cc(-c2ccc(OC)cc2)n(CCC(=O)Nc2nc3ccc(OCC)cc3s2)c1C	inactive: -27.6%
CCN(CC)CCCNC(=O)CN1N=C(c2ccc(OC)cc2)CCC1=O	inactive: -6.52%
COc1cc(Cl)c(C)cc1NC(=O)Cn1ncc2c3ccccc3n(Cc3ccccc3)c2c1=O	inactive: 21.7%
CCc1ccc(CNC(=O)c2c(C)oc3ncn(CC(C)C)c(=O)c23)cc1	inactive: -2.48%
COc1ccc(C(=O)N2c3ccc(C)cc3C(C)(c3ccccc3)CC2(C)C)cc1 (stereo not given)	inactive: -0.253%
CCCCNS(=O)(=O)c1ccc2nc(-c3cccnc3)cc(C(=O)NCCOC)c2c1	inactive: -3.24%
O=S(=O)(c1cccc(F)c1)N1CCC(Oc2ccc(-n3cnnn3)cc2)CC1	inactive: -18.4%
CC(C)c1ccc(OCC(O)CN2CCN(c3ccc(F)cc3)CC2)cc1 (stereo not given)	inactive: -0.179%
COc1ccccc1CNC(=O)c1cc2c(s1)-c1ccccc1OC2	inactive: -8.01%
CCC(=O)N1c2ccc(S(=O)(=O)CCC(=O)Nc3ccc(Br)c(C)c3)cc2CC1C (stereo not given)	inactive: -9.18%
CCN(Cc1ccccc1)C(=O)c1sc2nc3n(c(=O)c2c1C)CCCC3	inactive: 6.96%
Cc1ccc(Cl)cc1N1CCN(C(=O)CN2C(=O)CSc3c2c(C)nn3-c2ccccc2)CC1	inactive: 4.27%
O=C(NCc1cccs1)c1ccc(Cn2c(SCc3ccc(F)cc3)nc3cccnc32)cc1	inactive: -10.3%
COc1ccc(-c2cn3c(n2)sc2cc(C(=O)NCCc4ccc(OC)cc4OC)ccc23)cc1	inactive: 11.6%
CCc1ccc2c(c1)-c1ccccc1S(=O)(=O)N2CC(=O)N1CCCCC1	inactive: -8.28%
COCCNC(=O)Cn1c(=O)n(CCCCCC(=O)Nc2ccccc2)c(=O)c2sccc21	inactive: -22.5%
O=S(=O)(c1ccccc1)c1nnn2c1nc(NCc1ccccc1)c1sccc12	inactive: 23.3%
Cc1cccc2sc(N(CCCN(C)C)C(=O)COc3ccccc3)nc12	inactive: 4.58%
COC(=O)c1ccccc1NC(=O)Cn1c(=O)n(-c2cccc(C(F)(F)F)c2)c(=O)c2c(C)c(C)sc21	inactive: 0.489%
CCOc1ccc(N(CC)S(=O)(=O)N2CCCC(C(=O)NCCc3ccc(OC)cc3)C2)cc1 (stereo not given)	inactive: 0.208%
Cc1ccc(S(=O)(=O)NCC2CCC(C(=O)NCCc3ccc(Cl)cc3)CC2)cc1 (stereo not given)	inactive: 11.6%
Cc1ccc(C)c(N2CCN(C(=O)c3cc(S(=O)(=O)N4CCCCCC4)cn3C)CC2)c1	inactive: 3.85%
COCCCNC(=O)c1ccc(Cn2c(SCc3cccc(C)c3)nc3cccnc32)cc1	inactive: -22.4%

SMILES	activity change, negative = cytotoxicity
Cc1cc(C)c2c(n1)sc1c(=O)n(-c3cc(Cl)ccc3C)nnc12	inactive: 4.49%
CCOC(=O)C1CCCN(C(=O)c2nn(-c3ccc(C)cc3)c(=O)c3c2c2ccccc2n3C)C1 (stereo not given)	inactive: -0.955%
CCCn1c(CCCNC(=O)c2ccccc2OC)nc2ccccc21	inactive: -6.73%
O=C(/C=C\c1ccccc1)NC1CC(=O)N(c2ccccc2)C1 (stereo not given)	inactive: 6.28%
COc1ccc(CCNS(=O)(=O)c2ccc3c(c2)c(=O)n(C)c(=O)n3C)cc1OC	inactive: -6%
COc1ccc(OC)c(NC(=O)Cn2nc3c(cc2=O)CCCC3)c1	inactive: -1.09%
NS(=O)(=O)c1ccc(NC(=O)c2cc(-c3cccs3)nc3ccccc23)cc1	inactive: 4.31%
Cc1ccc(NC(=O)CCCc2nnc3n(C)c(=O)c4sccc4n23)cc1C	inactive: -4.83%
COc1ccc(NC(=O)C2=C(C)Nc3nc(SCc4ccc(C)cc4C)nn3C2c2cccc(OC)c2OC)cc1 (stereo not given)	inactive: 15.5%
Cc1oc2ncnc(N3CCCCC3)c2c1C(=O)NCC1CCN(Cc2ccccc2F)CC1	inactive: -1.71%
Cc1ccc(CNC(=O)c2oc3ccc(S(=O)(=O)N4CCCC(C)C4)cc3c2C)cc1 (stereo not given)	inactive: -7.58%
COc1ccccc1NC(=O)c1sc2nc(-c3cc4cc(Cl)ccc4oc3=O)[nH]c(=O)c2c1C	inactive: -3.38%
Cc1[nH]c(=O)[nH]c(=O)c1S(=O)(=O)Nc1cccc(Cl)c1C	inactive: -5.6%
CCOc1ccc(CNC(=O)Cn2nc(C)c3nn(-c4ccc(Cl)cc4)c(C)c3c2=O)cc1	inactive: -1.24%
COc1cc(NC(=O)Cn2c(=O)n(Cc3ccccc3)c(=O)c3oc4ccccc4c32)cc(OC)c1	inactive: -21.5%
CCOC(=O)c1c(S(=O)(=O)N2CCC(C(=O)Nc3ccc(C)cn3)CC2)c(C)n(C)c1C	inactive: 1.83%
CCn1c(SC)nc2c([nH]c3ccccc32)c1=O	inactive: -0.969%
COc1ccc(CNC(=O)c2ccc3c(c2)N=C(C)c2c(C)ccc(C)c2S3)cc1	inactive: 14.5%
Cc1cc(C)cc(NC(=O)CC(C)n2nc(C)cc2C)c1 (stereo not given)	inactive: 1.78%
O=C(Cn1ccc2cc(S(=O)(=O)N3CCCC3)ccc21)NCc1ccc(Cl)cc1	inactive: 2.52%
CCN(CC)c1ccc(NC(=O)CN2CCN(S(=O)(=O)c3ccc(C(C)C)cc3)CC2)cc1	inactive: -26.4%
O=C(Nc1ccc(F)cc1)C1CCN(c2nc3ccccc3nc2C(F)(F)F)CC1	inactive: 12%
COc1ccc(-c2noc(CC(=O)N(C)c3ccccc3F)n2)cc1	inactive: 2.02%
CCOc1ccccc1CNc1ncnc2onc(-c3ccc(F)cc3)c12	inactive: -7.29%

SMILES	activity change, negative = cytotoxicity
CCCNC(=O)CN1C(=O)COc2ccc(S(=O)(=O)N3CCCC3)cc21	inactive: 0.0327%
Cc1nc(N2CCOCC2)c2c(C(=O)N3CCN(c4cc(Cl)ccc4C)CC3)c(C)oc2n1	inactive: 1.18%
O=C(CN1C(=O)C2CCCCN2c2ccc(C(=O)N3CCCC3)cc21)NCc1ccc(F)cc1 (stereo not given)	inactive: 0.642%
COC(=O)c1ccc(C2CC(=O)Nc3c2c(C)nn3-c2nc(C)cc(C)n2)cc1 (stereo not given)	inactive: 8.66%
O=C(Nc1ccc(S(=O)(=O)Nc2ncccn2)cc1)c1cccc(Cl)c1	inactive: 2.67%
COc1ccc(-n2cc(C(=O)NCCc3ccc(C)cc3)c3ccccc3c2=O)cc1	inactive: -1.94%
CC1CCCCN1C(=O)CSc1nc2ccccc2nc1Cc1ccccc1 (stereo not given)	inactive: -11.5%
COc1ccc(-c2cc3c(=O)n(CC(=O)Nc4ccccc4C(F)(F)F)ccn3n2)cc1OC	inactive: -0.159%
COc1ccc(C(c2c(C)n(C)n(-c3ccccc3)c2=O)c2c(C)n(C)n(-c3ccccc3)c2=O)cc1O	inactive: -11.7%
Cc1ccc(N2CC(NC(=O)Cc3cccs3)CC2=O)cc1 (stereo not given)	inactive: 9.12%
CCOc1cccc2sc(N(Cc3cccnc3)C(=O)c3ccco3)nc12	inactive: 4.95%
Cc1c(C(=O)Nc2ccc(Br)cc2F)oc2ccc(S(=O)(=O)N3CCCCC3)cc12	inactive: 9.5%
CC1(C(=O)Nc2cccc(C(F)(F)F)c2)Cc2ccccc2C(=O)O1 (stereo not given)	inactive: -21%
CC(=O)c1ccc(NC(=O)CN(C)S(=O)(=O)c2cc3c(cc2C)NC(=O)CO3)cc1	inactive: 2.59%
CC1CCN(CC(=O)N2CCCc3c2c(=O)oc2ccc(OCc4ccccc4)cc32)CC1	inactive: -9.79%
CC(C)CCN1C(=O)N(c2ccccc2)C(=O)C1CC(=O)Nc1ccc(Cl)cc1 (stereo not given)	inactive: 0.556%
CC(C)NC(=O)CSc1nc2ccccc2nc1N1CCCCC1	inactive: 11.2%
Cc1ccc(Sc2ccc(N3CCCC(C(=O)Nc4ccc(Cl)cc4)C3)nn2)cc1 (stereo not given)	inactive: -19.6%
CC1=C(C(=O)Nc2cccc(C)c2C)C2(CCCCC2)OC1=O	inactive: -2.24%
COc1ccc(CCNC(=O)c2cnc3sc(N4CCCCCC4)nn3c2=O)cc1OC	inactive: -0.0917%
COc1ccc(OC)c(CNS(=O)(=O)c2c(C(=O)N3CCC(C)CC3)c(C)n(C)c2C)c1	inactive: 7.59%
Cc1cc(C)cc(NC(=O)Cn2nnc(C(=O)NCCc3ccccc3)c2N)c1	inactive: 9.39%
O=C(Nc1cccc(C(F)(F)F)c1)C1CCCN(S(=O)(=O)c2cccc3nsnc23)C1 (stereo not given)	inactive: -7.82%
